Measurements as given in PubChem BioAssay AID492947 (National Center for Advancing Translational Sciences (NCATS), 2010).
In all, about 330,000 compounds went through this assay and about 80 (0.02%) were called active. The inconclusive results got no clear call from the source; some entries with a clear call stand among them for comparison. Calls come from the whole dose curve; as a rule, active = well fitted activation curve with a large enough effect; inconclusive = small, poorly fitted or top-dose-only effect; inactive = flat fitted curve, though single readings scatter. Potencies of inconclusive entries are left out as doubtful fits.

molecular target: Beta-2 adrenergic receptor (Homo sapiens) (UniProt P07550); assay: qHTS assay of beta-arrestin-biased ligands of beta2-adrenergic receptor; details: beta-arrestin recruitment to beta2AR, cell-based reporter; series mostly up to 46.1 µM; activation: at the top concentration; note: nearly all actives have a fitted effect of over 65% in size;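 for activation: 0% = DMSO controls and full agonism = EC100 isoproterenol or metaproterenol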
Outline: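 qHTS, Tango cells, 1500 cells/well, DMEM + 1% FBS. Cpd 18 hr at 37 degrees C. Luciferin/ATP/CoA detection mix, 15 min RT, luminescence read. %Activity from corrected signal; CRC fit, curve class.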
Potency is the fitted concentration of half-maximal effect; tags give direction and shape of the fitted curve.

Chain of UniProt P07550 (P07550 whole entry, looked up): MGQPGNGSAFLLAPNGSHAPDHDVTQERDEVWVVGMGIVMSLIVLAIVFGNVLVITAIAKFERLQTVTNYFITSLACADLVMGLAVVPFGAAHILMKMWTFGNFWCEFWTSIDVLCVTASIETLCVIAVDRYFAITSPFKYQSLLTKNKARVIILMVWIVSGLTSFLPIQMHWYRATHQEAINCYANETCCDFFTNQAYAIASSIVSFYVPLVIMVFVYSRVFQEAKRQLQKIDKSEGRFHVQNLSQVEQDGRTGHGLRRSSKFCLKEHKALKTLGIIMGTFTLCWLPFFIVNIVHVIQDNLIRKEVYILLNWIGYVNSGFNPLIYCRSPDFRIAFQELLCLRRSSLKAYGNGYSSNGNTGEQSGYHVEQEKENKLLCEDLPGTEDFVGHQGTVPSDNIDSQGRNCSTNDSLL

Structure (SMILES) | Potency | activation
CCOc1cccc(/C=C/c2ccc3cccc(O)c3n2)c1OC | inconclusive [rising, single point] | –
COc1ccc(CCNC(=O)c2cc3c(=O)n4cccc(C)c4nc3n(Cc3ccco3)c2=N)cc1OC | inconclusive [rising, single point] | –
COc1cccc(C(=O)NC(=S)Nc2ccccc2N2CCCCC2)c1 | inconclusive [rising, single point] | –
CNc1nc(-c2ccc(OC)cc2)c(-c2ccc(OC)cc2)s1 | – | inactive: 0.0798%
CNC(=S)N/N=C(\C)c1ccc(Cl)s1 | active: 18.4 µM | –
COc1ccc(OCC(=O)NCC(c2ccc(OC)cc2)N2CCCCC2)cc1 (stereo unspecified) | – | inactive: -0.175%
COCCCN1C(=O)c2[nH]nc(-c3ccccc3O)c2C1c1ccc(Cl)cc1 (stereo unspecified) | inconclusive [rising, single point] | –
COC(=O)c1ccc(COC(=O)CNC(=O)C2CCCCC2)cc1 | inconclusive [rising, single point] | –
O=C(NCCc1ccccc1)c1cnc2sccn2c1=O | inconclusive [rising, single point] | –
COc1ccccc1C(=O)COC(=O)c1cccs1 | – | inactive: -0.95%
CN(C)C(=O)Oc1ccc[n+](C)c1 | – | inactive: -0.855%
CC(=O)OCC1O[C@@H](O[C@@H]2C[C@H]3C(C)(C)[C@H](OC(C)=O)CC[C@]3(C)[C@H]3CC[C@]45C[C@]4(CC[C@H]5[C@@H](C)C[C@@H](O)[C@H](O)C(C)(C)O)[C@@]32C)[C@H](O)[C@@H](O)[C@@H]1O (stereo partly specified) | – | inactive: -0.79%
COc1cc(/C=C/c2ccc3c(Br)cc(Br)c(O)c3n2)ccc1O | inconclusive [rising, single point] | –
Cc1ccc(NC(=S)NCCc2ccc(S(N)(=O)=O)cc2)cc1C | – | inactive: -0.369%
NC(=O)C[n+]1cccc(/C=N/O)c1 | inconclusive [rising, single point] | –
Cc1cc(=O)n2cccc(O)c2n1 | inconclusive [rising, single point] | –
COc1ccc(CCNC(=O)C2CCN(Cc3nc(-c4ccccc4F)oc3C)CC2)cc1OC | inconclusive [rising, single point] | –
COc1ccc(C(=O)Oc2c(CN3CCOCC3)cc(Cl)c3cccnc23)cc1 | inconclusive [rising, single point] | –
C=CCn1c(CSc2nc3ccccc3s2)n[nH]c1=S | inconclusive [rising, single point] | –
N/C(=N\OC(=O)C1CCCCC1)c1cccc(Br)c1 | inconclusive [rising, single point] | –
CC(=O)Nc1ccc(-c2nc3cc(Cl)ccc3o2)cc1 | – | inactive: 0.348%
CN(c1ccccc1)c1ccc(/C=N/NC(=O)CC#N)cc1 | active: 1.3 µM | –
CC1CN(CC(=O)Nc2cccc(C(=O)Nc3cccc(C(F)(F)F)c3)c2)CC(C)O1 (stereo unspecified) | – | inactive: -0.403%
CC1C/C(=C/c2ccco2)C(=O)/C(=C/c2ccco2)C1 (stereo unspecified) | inconclusive [rising, single point] | –
COc1cc(OC)cc(C(=O)Oc2c(CN3CCOCC3)cc(Cl)c3cccnc23)c1 | active: 3.98 µM | –
Cc1cc(C)nc(-n2nc(C)cc2NC(=O)CN2CCCC2)n1 | inconclusive [rising, single point] | –

Structure (SMILES) | Potency | activation
N#C/C(=C(/O)c1ccco1)c1nc2ccccc2s1 | inactive | –
C/C(=N\Nc1ccccn1)c1ccc(C(C)C)cc1 | – | inactive: 13.4%
CCCCn1nnc(NC(=S)NC(=O)c2ccc(-c3cccc(Cl)c3Cl)o2)n1 | – | inactive: -0.625%
CC(C(=O)O)N1C(=O)/C(=C/C=C/c2ccco2)SC1=S (stereo unspecified) | – | inactive: -0.243%
O=Cc1ccc(O)c2ncccc12 | active: 6.31 µM | –
CCCN(C(=O)c1cccc(S(=O)(=O)N2CCCc3ccccc32)c1)C1CCS(=O)(=O)C1 (stereo unspecified) | inconclusive [rising, single point] | –
O=C(/C=C/c1ccc(F)cc1)NC(=S)N1CCN(Cc2ccccc2)CC1 | inconclusive [rising, single point] | –
CCN(CC)c1ccc(C(=O)NNC(=O)CN2C(=O)NC3(CCCCC3)C2=O)cc1 | – | inactive: -0.253%
COc1ccc2nc(NCc3ccccc3)[nH]c2c1 | – | inactive: -1.2%
CCOC(=O)N1CCN(C(=O)c2ccc(CSc3ccc(Cl)cc3)cc2)CC1 | – | inactive: -0.314%
COc1ccc(NC(=O)CN(c2ccc([N+](=O)[O-])cc2)S(=O)(=O)c2ccccc2)c(OC)c1 | – | inactive: 0.0863%
CCCC(C(=O)N1CCOCC1)N1C(=O)C2C3C=CC(C3)C2C1=O (stereo unspecified) | inconclusive [rising, single point] | –
C=CCn1c(COc2ccccc2)nnc1SCC(=O)N/N=C/c1ccc(C)cc1 | – | inactive: -0.121%
CNCc1ccccc1Sc1cc(O)ccc1O | inconclusive [rising, single point] | –
N#CC1=C2SCN(c3ccccc3)CN2C(=O)CC1c1c(Cl)cccc1Cl (stereo unspecified) | inconclusive [rising, single point] | –
COC(=O)c1cc(=O)n(-c2ccccc2)c(=Nc2ccccc2)s1 | – | inactive: 0.482%
CCOC(=O)c1[nH]c2ccc(OC)cc2c1NC(=O)NC(C)C | – | inactive: -1.14%
COc1ccc(NC(=O)C2C(=O)N(C)C3(C)CC2c2ccccc2O3)cc1 (stereo unspecified) | inconclusive [rising, single point] | –
COc1ccccc1N1CCN(CC(O)COc2ccc3c(c2)CCC3)CC1 (stereo unspecified) | – | inactive: 0.294%
C/C(=N\NC(=S)NC(C)C)c1ccc(Cl)c([N+](=O)[O-])c1 | inconclusive [rising, single point] | –
CCc1nn(CC(=O)NCCCN2CCN(C)CC2)c(=O)c2cc3sccc3n12 | – | inactive: 0.164%
CCNc1nc(NCC)nc(N(C)/N=C/c2ccco2)n1 | inconclusive [rising, single point] | –
S=C(Nc1ccccc1)N1CCn2c1nc1ccccc12 | inconclusive [rising, single point] | –
CCCn1c(Nc2nc3ccccc3n2C)nc2ccccc21 | inconclusive [rising, single point] | –
CC(C)Cn1c(N)c(C(=O)COC(=O)CC23CC4CC(CC(C4)C2)C3)c(=O)n(C)c1=O | – | inactive: -0.72%
CCNc1nc(NCC)nc(N/N=C/c2ccc(N(C)C)cc2)n1 | inconclusive [rising, single point] | –

Structure (SMILES) | Potency | activation
CCOc1ccc(S(=O)(=O)NCCCn2ccnc2)cc1NC(C)=O | inconclusive [rising, single point] | –
CCC(C(=O)Nc1cc(C)nn1-c1nc(C)cc(C)n1)c1ccccc1 (stereo unspecified) | inconclusive [rising, partial curve, poor fit] | –
COc1ccc2nc(NC(=O)[C@@H]3CCCN3C(=O)c3cccs3)sc2c1 | inconclusive [rising, single point] | –
COc1ccc(Cn2c(=O)c3[nH]cnc3n(-c3ccccc3C)c2=O)cc1 | – | inactive: -0.748%
Cc1cccc(OCC(=O)N/N=C/C=C/c2ccco2)c1 | inconclusive [rising, single point] | –
COc1ccc(C2=NN(C(=O)c3ccc(Cl)c([N+](=O)[O-])c3)C(c3ccccc3)C2)cc1 (stereo unspecified) | inconclusive [rising, single point] | –
Cc1ccc(S(=O)(=O)N2CC=C(C(=O)NCc3ccccc3)CC2)cc1 | inconclusive [activator, full curve] | –
O=C(Oc1c(CN2CCOCC2)cc(Cl)c2cccnc12)c1ccccc1Br | inconclusive [rising, single point] | –
COc1cnc(-c2ccccn2)nc1Sc1ccccc1Cl | inconclusive [rising, single point] | –
O=[N+]([O-])c1ccc(OCC(O)CN(C2CCCCC2)C2CCCCC2)cc1 (stereo unspecified) | inconclusive [rising, single point] | –
CCN(CC)CCCNC(=O)CCC(=O)NNc1nc2ccccc2c2nc(C)nn12 | inconclusive [activator, partial curve] | –
CC(/C=C/c1ccco1)=N/NC(=O)c1ccccc1Cl | – | inactive: -0.259%
Cc1ccc(C(C[N+](=O)[O-])c2c(C)[nH]n(-c3ccccc3)c2=O)cc1 (stereo unspecified) | – | inactive: 0.328%
Oc1ccc(NCc2cccc(OCc3ccc(F)cc3)c2)cc1 | inconclusive [activator, partial curve] | –
CC(C)Cc1nc2oc3c(NCC4CCCO4)ncnc3c2c2c1CCC2 (stereo unspecified) | – | inactive: 0.0153%
Cc1ccc(Cc2ccc(C(=O)NNC(N)=S)o2)cc1 | – | inactive: -0.124%
CN(C(=O)CSc1ccncc1)C1CCCN(Cc2ccccc2F)C1 (stereo unspecified) | inconclusive [rising, single point] | –
COc1ccccc1NS(=O)(=O)c1ccc(NC(=O)Cc2cccs2)cc1 | inconclusive [rising, single point] | –
O=C(Oc1cccc2cccnc12)c1ccc2c(c1)OCCO2 | inconclusive [rising, single point] | –
CCCCNC(=S)N/N=C/c1cccc(OCC)c1O | inconclusive [activator, partial curve] | –
O=C(CSc1nc2ccccc2c(=O)n1-c1ccc(F)cc1)Nc1cc(S(=O)(=O)N2CCOCC2)ccc1Cl | active: 16.4 µM | –
C/C(CCC1CC(C)(C)OC1=O)=N\NC(N)=S (stereo unspecified) | inconclusive [rising, single point] | –
COCCCNC(=O)CSc1nc2c(sc(=S)n2-c2cc(Cl)ccc2OC)c(=O)[nH]1 | – | inactive: 0.0087%
Oc1ccc(NCc2ccc(OCc3ccccc3)cc2)cc1 | inconclusive [activator, partial curve] | –
